We go through 69 molecules from PubChem BioAssay AID488969 (Vanderbilt High Throughput Screening Facility, 2010).

The full ranking holds about 110,000 compounds; the median of “z-score” is about -0.1, and the highest 2% start at about 2. The list shows a part of the results.

The target of this assay is Metabotropic glutamate receptor 8 (Rattus norvegicus) (UniProt P70579). Nature of the assay: mGluR8 Gi/Go-coupled signaling modulation – cell-based, rat, thallium flux, HTS, primary screen (AID 488969). The conditions noted are these: HEK293 rat mGluR8, GIRK (G protein-gated inwardly rectifying potassium channel) thallium flux, FluoZin2; at 10 µM; stronger effect = higher value; submaximal glutamate (EC20) added with thallium.
Sequence of UniProt P70579 (P70579 whole entry, looked up): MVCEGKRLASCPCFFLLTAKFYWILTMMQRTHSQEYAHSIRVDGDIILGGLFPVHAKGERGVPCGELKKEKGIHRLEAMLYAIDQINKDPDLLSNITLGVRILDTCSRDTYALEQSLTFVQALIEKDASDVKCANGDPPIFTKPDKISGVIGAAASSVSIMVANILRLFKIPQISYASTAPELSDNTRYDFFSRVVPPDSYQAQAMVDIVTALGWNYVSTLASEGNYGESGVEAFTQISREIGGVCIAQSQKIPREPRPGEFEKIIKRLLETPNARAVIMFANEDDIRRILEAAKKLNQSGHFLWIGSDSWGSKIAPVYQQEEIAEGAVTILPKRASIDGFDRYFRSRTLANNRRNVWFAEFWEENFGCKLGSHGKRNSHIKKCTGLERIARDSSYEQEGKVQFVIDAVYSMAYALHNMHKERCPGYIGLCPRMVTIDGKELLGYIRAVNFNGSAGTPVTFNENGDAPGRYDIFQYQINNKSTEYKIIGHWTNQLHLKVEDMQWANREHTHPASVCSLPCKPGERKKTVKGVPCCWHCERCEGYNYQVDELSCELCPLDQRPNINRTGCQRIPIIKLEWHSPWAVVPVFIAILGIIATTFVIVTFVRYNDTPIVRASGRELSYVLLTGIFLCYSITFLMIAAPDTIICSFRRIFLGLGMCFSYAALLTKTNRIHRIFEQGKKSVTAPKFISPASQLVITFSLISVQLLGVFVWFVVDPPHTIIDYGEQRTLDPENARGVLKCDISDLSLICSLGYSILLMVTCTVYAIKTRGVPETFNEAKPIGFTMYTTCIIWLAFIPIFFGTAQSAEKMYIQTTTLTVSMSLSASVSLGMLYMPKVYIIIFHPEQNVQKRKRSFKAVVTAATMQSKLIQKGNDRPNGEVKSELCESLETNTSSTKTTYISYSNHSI
For the molecule `CC(C)(C)c1ccc(C(=O)N/C(N)=N/c2nc3ccccc3o2)cc1`, the z-score was found to be 0.248. Take `O=C(NC(=S)NC1CC1)c1cccnc1`: the z-score came to 0.798. The value for `CCN(CC)C(=O)c1sc(NC(=O)c2ccc(C)c([N+](=O)[O-])c2)c(C#N)c1C` was 0.0677; that for `CCS(=O)(=O)N1CCN(C(=O)c2ccco2)CC1` was -0.17. The value for `CC1CCCC(NC(=O)C2CCCN2S(=O)(=O)c2cccc3nsnc23)C1C` (centres undefined) was -0.00781; that for `COc1ccc(OC)c(C(=O)CSc2nnc(Cc3cccs3)n2CCc2ccccc2)c1` was -0.216.

Molecule `CC1(C)NC(=O)N(CCCCOc2ccc(Br)cc2Cl)C1=O` showed a z-score of -0.129. The value for `COc1ccc(CCNC(=O)CSCc2n[nH]c(=O)[nH]2)cc1OC` was 0.936. The value for `O=S(=O)(CCCc1ccccc1)c1ncn[nH]1` was 0.147; that for `CC(C)(C)NS(=O)(=O)c1ccc(CCC(=O)N2CCOCC2)cc1` was -0.128. The value for `COCCN(CCOC)C(=O)c1cc2c(=O)n3ccccc3nc2s1` was -0.489; that for `CCc1nnc(NC(=O)CSc2nnc(-c3cc4ccccc4cc3O)n2CCOC)s1` was -0.0306; that for `Cc1ccc([N+](=O)[O-])cc1NC(=O)CN1CCC(C)CC1` was -0.169. Molecule `Cc1cc2c3c(c1)C1(C(=O)N3C(C)(C)CC2C)C(C#N)=C(N)Oc2cc(O)ccc21` (centres undefined) gave a z-score of 0.791. Regarding `Cc1cc(C(=O)CSc2nc(N)cc(=O)[nH]2)c(C)n1CCc1ccc(Cl)cc1`, the z-score amounted to 0.0115. In turn, `CCCN1C(=O)/C(=N\OCC(=O)NCC(F)(F)F)c2ccccc21` had a z-score of -0.393.

The molecule `O=C(Cn1nc(-c2ccc3c(c2)OCCO3)ccc1=O)Nc1ccc(N2CCOCC2)cc1` had a z-score of 0.0486. For the molecule `CCOC(=O)/C=C1\SCC(=O)N1CC(=O)NCc1cccc(Cl)c1`, the z-score came to 1.26. The value for `COc1ccc(C(C)=O)cc1CSc1nnc(Nc2c(C)cccc2C)s1` was -0.239. The value for `O=C(/C(=C/c1cccc(Cl)c1)c1nc2ccccc2[nH]1)c1ccccc1` was -0.206; that for `Cc1ccccc1NC(=S)NCc1ccco1` was -0.178.

In turn, `O=C(c1ccc(S(=O)(=O)c2ccccc2)cc1)N1CCCCCC1` had a z-score of -0.185.

In turn, `C=CCN(CCNP(=O)(OCC)OCC)CP(=O)(OCC)OCC` registered a z-score of 0.044. `CNC(=O)CN1C(=O)C2C3C=CC(C3)C2C1=O` (centres undefined) registered a z-score of 0.633.

For the molecule `CC(Sc1cccc[n+]1[O-])C(=O)Nc1cccc(S(=O)(=O)N2CCOCC2)c1` (centres undefined), the z-score is -0.153. The value for `COc1ccc(-n2c(=S)[nH]c3cc(C(=O)NCCCN4CCCC4=O)ccc3c2=O)c(OC)c1` was 0.589. The value for `O=c1cc(O)c(-c2ccccc2)c(Cl)[nH]1` was -0.318. The value for `O=C(CSc1nnnn1-c1ccccc1)Nc1nc(-c2ccccc2)ns1` was 0.742; that for `Cc1ccc(C(C(=O)NCc2ccccc2)N(Cc2cccs2)C(=O)c2ccc3c(c2)OCCO3)cc1` (centres undefined) was -0.331; that for `CC(=O)NNC(=O)C(O)(c1ccccc1)c1ccccc1` was -0.0895. Take `CCc1sc(NC(=O)COC)nc1-c1ccccc1`: the z-score was determined as 0.769. The value for `Cc1ccc(S(=O)(=O)NC2c3cccc4cccc(c34)C2Sc2n[nH]c(N)n2)cc1` (centres undefined) was -0.129; that for `CCCC1S/C(=N/N=C/c2ccco2)NC1=O` (centres undefined) was 0.687.

`CN(CC(=O)NCc1ccc(F)cc1)S(=O)(=O)c1cccc2nsnc12` yielded a z-score of 0.00752. The value for `CCSc1nc(-c2ccccc2)c2cc(Cl)ccc2n1` was -0.0154; that for `C=CCOC(=O)C1=C(C)NC(SCC(=O)Nc2ccccc2)=C(C#N)C1c1ccco1` (centres undefined) was 0.334. The value for `c1csc(C2C3=C(Nc4ncnn42)c2ccccc2OC3)c1` (centres undefined) was -1.39; that for `O=C(Cc1ccccc1)Nc1c[nH]c(=O)[nH]c1=O` was -0.449.

The molecule `O=C(NC1(C(F)(F)F)NC(=O)N(Cc2cccnc2)C1=O)c1ccc(F)cc1` (centres undefined) gave a z-score of 0.269. Regarding `O=C(Nc1nc(-c2ccc(S(=O)(=O)N3CCCC3)cc2)cs1)c1cccs1`, the z-score was 0.246.

The molecule `CCOc1ccc(N=c2scc(-c3ccccc3)n2CCO)cc1` registered a z-score of -0.02. Consider `O=[N+]([O-])c1cc(C(F)(F)F)c(Cl)cc1N1CCN(CCO)CC1`, for which the z-score was -0.0504. The value for `COc1ccc(C(C)=O)cc1CN1C(=O)NC2(CCCCCC2)C1=O` was -0.0628. The value for `COc1ccc(NC(=O)CSc2nnc(COc3ccccc3)n2Cc2ccco2)cc1OC` was -0.561; that for `S=C(NCCc1ccccc1)Nc1ccc(Cl)cc1Cl` was 1.43. The value for `Cc1ccc(C2CC(=O)N3CN(Cc4ccco4)CSC3=C2C#N)cc1` (centres undefined) was 0.0204. As for `CCCCN(CCCC)CCNC(=O)Cc1nc2c(c(=O)[nH]c(=O)n2C)n1C`, the z-score worked out at 0.198. Molecule `Clc1ccc(SCc2cc(-c3ccc(Cl)cc3)on2)cc1` showed a z-score of -0.169.

As to `Cc1cc2cc(CNC(=O)c3ccc4c(c3)OCO4)ccc2[nH]1`, the z-score was -0.404.

With `Cc1ccc(S(=O)(=O)N(C)CC(=O)OCC(=O)c2c(N)n(C)c(=O)n(C)c2=O)cc1`, the z-score is 0.00287. The value for `CC1CCCCN1C(=O)CSc1nc(C2CC2)nc2c1cnn2-c1ccccc1` (centres undefined) was -0.0765; that for `Cc1ccc(OCC(=O)N2CCN(S(=O)(=O)c3ccccc3)CC2)c([N+](=O)[O-])n1` was -0.252; that for `Cc1cc(C)n(-c2ccc(C(=O)Nc3ccc4c(c3)OCO4)cc2)n1` was -0.499. The value for `Cc1cc(C)nc(-n2nc(C)c(Oc3ccccc3O)c2C)n1` was -0.176; that for `COc1ccc(-c2csc(NC(=O)CSc3nc(SC)ns3)n2)cc1` was -0.0415.

The molecule `O=C(/C=C/c1cccc([N+](=O)[O-])c1)Nc1cccc(NC(=O)c2cccs2)c1` gave a z-score of 0.123. The value for `COC(=O)c1sccc1NC(=O)CSc1ccccc1NS(=O)(=O)c1ccc(F)cc1` was 0.941; that for `COc1ccc(N2CCN(C(c3cc(OC)ccc3OC)c3nnnn3CC3CCCO3)CC2)cc1` (centres undefined) was -0.274; that for `CCSc1ccc(C(=O)Nc2cccc(C)n2)cc1[N+](=O)[O-]` was -0.169.

For the molecule `CCOc1nc(C)ccc1-c1noc(-c2ccccn2)n1`, the z-score was 0.421. The value for `O=c1[nH]c2ccc(S(=O)(=O)N3CCC(Cc4ccccc4)CC3)cc2o1` was -0.00931; that for `COc1ccc(OC)c(C2=Nn3c(nnc3C3CCCCC3)SC2)c1` was -1.01; that for `COCCSc1ccccc1C(=O)NCc1ccco1` was 0.383. The value for `COc1ccc(/C(N)=N/OC(=O)c2cc(-c3ccccc3)nc3ccccc23)cc1` was -0.412; that for `Cc1ccc(S(=O)(=O)N2CCOCC2)cc1NC(=O)c1cc2c(s1)CCC2` was -0.409; that for `CCOc1cc2[nH]c(=S)n(Cc3ccc(C(=O)NCC(OC)OC)cc3)c(=O)c2cc1OCC` was 0.127. The value for `O=C(NCc1cccc(Cl)c1)c1ccc2c(c1)OCO2` was 0.172; that for `COCC(=O)Nc1cc(C(=O)Nc2ccccc2C)ccc1Cl` was 0.0183; that for `Cc1cc(Nc2c(C)cccc2C)n2nc(C)nc2n1` was -0.233.
